Data published in PubChem BioAssay AID938 (National Center for Advancing Translational Sciences (NCATS), 2007).
Screen size: about 73,000 compounds; about 1,800 (2.5%) were called active. The shares of active, inactive and inconclusive entries below differ from those in the screen. The call rests on the fitted dose curve; in most records, active means well fitted activation curve with a large enough effect; inconclusive means small, poorly fitted or top-dose-only effect; inactive means no such curve, though single readings can be large or run the other way. No potency is given beside an inconclusive call; the fits are too rough.
Potency means the concentration at half of the fitted maximal effect; tags describe the fitted curve by direction and shape.

Assay: qHTS Assay for Agonists of the Thyroid Stimulating Hormone Receptor: Activators of Intracellular cAMP Concentrations in Parental HEK 293; further: nearly all actives have a fitted effect of over 55% in size; on activation: % of control where 0% means no effect
Details: parental HEK293 CNG cAMP sensor, membrane potential fluorescence; activation: at 57.1 µM (top of the series) unless noted
Outline: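 Parental HEK 293 cells stably expressing a cAMP-gated CNG channel were loaded with membrane potential dye containing 100 uM RO 20-1724 for 60 min. Compound added for 30 min; depolarization read as fluorescence intensity at 590 nm.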
In the case of `CC(=O)OCC(=O)[C@@]1(O)[C@H](C)C[C@@H]2[C@H]3CCC4=CC(=O)C=C[C@]4(C)[C@]3(F)[C@@H](O)C[C@@]21C`, the “activation” value is reported as inactive: -2.4% [at 25.6 µM].
In the case of `O=C(Cc1ccccc1)Nc1ccccc1N1CCN(c2ccccc2)CC1`, the Potency is reported as inconclusive [activator, full curve].
For `CCOC(=O)C(C)Oc1cccc2c(=O)n(CC(=O)N3CCN(C(=O)OCC)CC3)ccc12` (centres undefined), the Potency was inconclusive [activator, single point].
With `O=C(CN1CCN(CC(=O)Nc2ccccc2Cl)CC1)Nc1ccc2c(c1)OCCO2` the “activation” value was inactive: 12%.
With `Cc1ccccc1NC(=O)CCN1CCN(Cc2ccccc2)CC1` the Potency was inconclusive [activator, single point].
In the case of `O=C(NCc1cccs1)c1nc2c(nnn2Cc2ccccc2Cl)c(=O)[nH]1`, the Potency is reported as inconclusive [activator, single point].
With `COC(=O)c1ccc(NC(=O)CN2CCN(c3ccc(Cl)cc3)CC2)cc1` the Potency was inconclusive [activator, single point].
In the case of `O=C(c1ccc2c(c1)OCCO2)C1CCN(S(=O)(=O)c2ccccc2F)CC1`, the Potency is reported as inconclusive [activator, partial curve].
In the case of `N#Cc1nc(COc2ccc(F)cc2)oc1N1CCCC1`, the Potency is reported as inconclusive [activator, partial curve].
For `CCCCCOC(=O)C1=C(C)N(C)C(=O)NC1c1cc(Br)c(O)c(OC)c1` (centres undefined), the Potency was inconclusive [activator, partial curve].
For `N#Cc1nc(-c2cccs2)oc1N1CCN(Cc2ccccc2)CC1`, the Potency was inconclusive [activator, single point].
For `CCOc1ccc(C2C=C(c3ccc(F)cc3)Nc3ncnn32)cc1` (centres undefined), the Potency was inconclusive [activator, single point].
With `CCOC(=O)CSc1nc(CC)nc2ccccc12` the Potency was inconclusive [activator, full curve, poor fit].
For `COc1ncc2nc(-c3ccccc3)c(=O)n(C)c2n1`, the “activation” value was inactive: -1.74%.
For `Cc1ccc(-c2noc(CCC(=O)NC3CCN(Cc4ccccc4)CC3)n2)cc1`, the Potency was inconclusive [activator, partial curve].
With `Cc1ccc(S(=O)(=O)N2CCN(C(=O)COc3ccc(-c4nnco4)cc3)CC2)cc1` the “activation” value was inactive: 6.18%.
For `CC1CCC(C(=O)NC(C(=O)NCCCN2CCOCC2)C(C)C)CC1` (centres undefined), the Potency was inconclusive [activator, single point].
For `COc1ccccc1CNc1nc(-c2cccc(C#N)c2)nc2ccccc12`, the Potency was inconclusive [activator, single point].
For `COc1ccccc1N1CCN(Cc2ccco2)CC1`, the Potency was inconclusive [activator, single point].
With `Cc1cc(C)cc(N(CC(=O)NCc2cccnc2)S(C)(=O)=O)c1` the “activation” value was inactive: -2.73%.
For `Cc1nc2ncnn2c(N2CCN(c3cccc(C(F)(F)F)c3)CC2)c1C`, the Potency was inconclusive [activator, single point].
In the case of `CC(=Nc1ccc(O)cc1)c1sc2ccccc2c1O`, the Potency is reported as inconclusive [activator, single point].
In the case of `Cc1cc(N2C(=O)C(=O)/C(=C(/O)c3ccc(Cl)cc3)C2c2cccc(Br)c2)no1` (centres undefined), the Potency is reported as inconclusive [activator, single point].
In the case of `CN1CCN(c2ncc3nc(CCc4ccccc4)c(=O)n(Cc4ccc(F)cc4)c3n2)CC1`, the Potency is reported as inconclusive [activator, partial curve, poor fit].
In the case of `Cc1cc(OC(=O)N2CCOCC2)cc(C)c1Cl`, the Potency is reported as inconclusive [activator, single point].
For `CCC(c1nnc(SCc2nc3ccccc3s2)n1Cc1ccccc1)N(C)C` (centres undefined), the Potency was inconclusive [activator, single point].
With `COc1cc(S(=O)(=O)n2c(C)nc3ccccc32)ccc1F` the Potency was inconclusive [activator, partial curve].
With `CCOCCO` the “activation” value was inactive: 15.8%.
With `COCC(=O)N1CCC2(CCN(Cc3ccncc3)CC2)CC1` the Potency was inconclusive [activator, single point].
With `COc1ccccc1CNc1ccc(N2CCCCC2)cc1` the Potency was inconclusive [activator, single point].
With `CCCN(CCC)S(=O)(=O)c1ccc(C(=O)N2CCC(=O)c3ccccc32)cc1` the Potency was inconclusive [activator, partial curve].
For `CCC(=O)Nc1sc(C(=O)OC)c(C)c1C(=O)OC`, the Potency was inconclusive [activator, partial curve].
In the case of `Cc1nc2ccccc2c2oc(C(=O)NCc3ccc4c(c3)OCO4)cc12`, the Potency is reported as inconclusive [activator, single point].
With `CCOC(=O)c1cc2sccc2n1CC(=O)OC(C)C` the Potency was inconclusive [activator, partial curve].
With `CCOC(=O)c1cc(-c2ccco2)nc2c1c(C)nn2CCC#N` the Potency was inconclusive [activator, partial curve].
For `CCCCSc1nc(C)c(C(C)=O)cc1C#N`, the Potency was inconclusive [activator, single point].
With `Cc1nc(N2CCN(c3ncccn3)CC2)c2oc3ccccc3c2n1` the Potency was inconclusive [activator, partial curve].
With `COc1ccc(Cl)cc1C(=O)NCC(c1ccco1)N1CCCC1` (centres undefined) the Potency was inconclusive [activator, single point].
For `COC(=O)c1ccc(Oc2nc3c(c(=O)n(C)c(=O)n3C)n2CCC(C)C)cc1`, the Potency was active: 15.8 µM.
For `COc1ccccc1N1CCN(S(=O)(=O)c2c(C)ccc3nsnc23)CC1`, the “activation” value was inactive: 3.29%.
With `O=C(c1ccccc1)n1nc(-c2ccccc2)nc1NCc1ccco1` the “activation” value was inactive: 19.4%.
In the case of `Nc1ccc2nc(-c3ccc(Cl)cc3)[nH]c2c1`, the “activation” value is reported as inactive: 10.5%.
In the case of `CCOC(=O)Cn1nc(-c2ccc(Cl)cc2)cc1N`, the Potency is reported as inconclusive [activator, single point].
With `CN(C)c1nc(-c2cccnc2)nc2ccccc12` the Potency was inconclusive [activator, single point].
